# Results: the supplement of paper PMC3334620
# Whole data set: some 33,000 sequences, median “E-score (-0.5 to 0.5)” near -0.012, cut for the highest 2% near 0.29. The list shows a part of the results.
# Target: T1, Ybr033w (UniProt P38073)
# T1 sequence: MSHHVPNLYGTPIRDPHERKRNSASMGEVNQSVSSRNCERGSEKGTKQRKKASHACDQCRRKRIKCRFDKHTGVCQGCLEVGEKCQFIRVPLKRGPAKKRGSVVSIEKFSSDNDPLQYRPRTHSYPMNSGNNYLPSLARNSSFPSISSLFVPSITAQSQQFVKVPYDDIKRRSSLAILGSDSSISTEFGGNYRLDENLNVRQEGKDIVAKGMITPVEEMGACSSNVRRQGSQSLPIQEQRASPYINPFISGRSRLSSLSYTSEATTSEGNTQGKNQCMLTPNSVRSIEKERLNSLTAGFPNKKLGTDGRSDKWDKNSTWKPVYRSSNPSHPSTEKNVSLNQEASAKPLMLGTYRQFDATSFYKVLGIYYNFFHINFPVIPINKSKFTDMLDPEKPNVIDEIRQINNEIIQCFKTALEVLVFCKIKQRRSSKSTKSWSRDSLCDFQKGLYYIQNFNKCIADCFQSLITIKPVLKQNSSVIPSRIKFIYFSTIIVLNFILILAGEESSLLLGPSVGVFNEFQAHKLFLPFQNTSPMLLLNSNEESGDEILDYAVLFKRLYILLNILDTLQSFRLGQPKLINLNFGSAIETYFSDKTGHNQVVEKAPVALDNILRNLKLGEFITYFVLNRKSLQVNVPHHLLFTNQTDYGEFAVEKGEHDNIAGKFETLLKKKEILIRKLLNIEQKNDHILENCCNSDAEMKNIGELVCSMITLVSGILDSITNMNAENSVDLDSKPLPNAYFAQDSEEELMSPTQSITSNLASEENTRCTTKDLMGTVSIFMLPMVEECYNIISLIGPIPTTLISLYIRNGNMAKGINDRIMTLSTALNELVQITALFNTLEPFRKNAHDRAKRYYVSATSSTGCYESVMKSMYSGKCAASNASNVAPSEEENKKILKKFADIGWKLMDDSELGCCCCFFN
# Experiment: PBM E-score (8-mer binding enrichment) (E-score (-0.5 to 0.5)); higher = stronger / more preferred TF binding; most listed sequences are background and not binding sites
# Conditions: protein concentration: 200 nM; construct: GST-full length
# Method in brief: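 Masliner-normalised scans of fluorescent anti-GST signal were the basis for scoring. That signal came from GST-tagged yeast transcription factors applied at about 100-200 nM to double-stranded universal all-10-mer Agilent arrays on fresh or once-stripped slides. Each ungapped eight-base word, pooled with its reverse complement, received an E-score from the Universal PBM Analysis Suite.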
row,Sequence,PBM E-score
1,CCCTCTCG,-0.276
2,CCAGGCAC,-0.0331
3,CTCATTGC,0.0277
4,GAATTTCA,0.244
5,AGCCTCCA,-0.211
6,ATTAGATA,0.222
7,TTCGGAAA,0.248
8,CAACCAAC,-0.205
9,GGTGTCAA,-0.00748
10,GAACTTCA,0.0447
11,GAGATAGC,-0.0429
12,AGTGCCGA,-0.106
13,CCCGCTAG,-0.0478
14,CAGAGTTC,0.0102
15,GCTAAAAC,-0.0353
16,CGCCTCAC,-0.0155
17,ACAAACCC,-0.121
18,CACCGGAG,-0.0552
19,AGGGGAGC,-0.375
20,AACAATAT,0.375
21,GGACGGCC,-0.397
22,CTAATTAA,0.133
23,CTTAATGC,0.116
24,AAACGGTG,-0.00876
25,AAACAATT,0.273

row,Sequence,PBM E-score
1,TACGCCCA,0.0751
2,CATCCTTC,-0.0759
3,CGGTATAG,-0.197
4,AGCTTCCC,-0.279
5,AACCACTT,0.103
6,TGCTACAA,0.161
7,CATACAAC,0.0804
8,CCCCTCAG,-0.374
9,AACCTGGA,0.0558
10,CTCCTACA,0.0493
11,CCGGATTC,-0.0449
12,CCTTCGCC,-0.253
13,ATGCTCAC,-0.0437
14,ACATCTCC,0.0694
15,ATTCGCGG,0.134
16,AAGTCTAA,0.0632
17,TCTCATAA,0.158
18,TGTAGAAA,0.167
19,CGGGTCGC,-0.196
20,TAGGTAAA,-0.0248
21,CAATTTAG,0.211
22,ATGTGGTC,0.0459
23,TAAGTGCA,0.0684
24,AATCATAA,0.24
25,ACCCAAAT,0.146

row,Sequence,PBM E-score
1,GATAGGGA,-0.109
2,AGACACTA,0.121
3,CCGCTACC,-0.0265
4,ATTCCAAG,0.146
5,ATGTCCCA,-0.235
6,GGATGCTA,0.0156
7,TACCTGCA,-0.0676
8,ACCCCGCT,-0.198
9,CACTCGGA,0.18
10,GAGAAAGC,0.0939
11,CCAGTTGA,-0.00251
12,GATAGATC,0.0692
13,AACCACGT,-0.0215
14,ACTCCTGA,-0.0893
15,AGTACACG,0.0246
16,GACGCGTA,0.0753
17,GCTGATTA,0.151
18,AGAAACGG,0.107
19,CATACTAC,0.188
20,GGTAACAA,0.235
21,CAGCTCGA,-0.161
22,AAGTTGTC,0.0924
23,AGTCGCCG,-0.0133
24,AAAATTCT,0.224
25,GAAATCAC,0.185

row,Sequence,PBM E-score
1,CGGGGATC,-0.368
2,CTGTTCCC,-0.213
3,GCGTTTCA,-0.00856
4,ACTGAAAG,0.126
5,GGTGTCCA,-0.0545
6,CCAGCGTA,-0.176
7,CCCTTGGA,0.0124
8,ATTACACC,0.0746
9,CTACGCAC,-0.0578
10,CGTTACAC,0.0514
11,AGCTATGC,-0.167
12,CAATGGCA,-0.0319
13,CATCTGAC,-0.259
14,CTACTTAC,0.149
15,AACTATCC,-0.0158
16,AACAATTA,0.366
17,GGTGGGAC,-0.43
18,GCCGAACC,-0.241
19,AATTCTGT,0.251
20,AATCCGCG,0.127
21,ATGGCGCA,0.0266
22,CGATCGAA,0.00591
23,ACTATTTA,0.235
24,AGCCGGGG,-0.342
25,CACATAGC,-0.032

row,Sequence,PBM E-score
1,CCAGTACC,-0.105
2,GAGTAGTA,0.163
3,CCTACCCG,-0.0231
4,CAGCACTA,-0.0204
5,GCTCCGAA,0.0402
6,AGTATTCC,0.161
7,GTGTTTGA,0.191
8,ACACTGAT,0.00135
9,TGTCCACA,0.134
10,TATTTGCA,0.225
11,CCCAGTTC,0.018
12,GGAGCCGA,-0.336
13,AAGTATTG,0.219
14,GAACGGAC,-0.149
15,AAGCATTG,0.108
16,GTGGAGCA,-0.254
17,AAGGGTAC,-0.119
18,AACAAGTG,0.127
19,AGGAGATC,0.0653
20,AGCCTTAA,-0.00502
21,AATCTTCA,0.318
22,AGGAAGCC,-0.117
23,CGACCCAC,-0.0852
24,GAAGCTTC,0.104
25,GGTTAGCA,0.0526

row,Sequence,PBM E-score
1,GGCATCCA,-0.185
2,CCGAGGTA,-0.0303
3,GAATTCAA,0.177
4,AAAAATGC,0.196
5,AGATGCAC,-0.14
6,CAAAGTCA,-0.0549
7,CTTGCCGC,-0.201
8,CTATTCGA,-0.043
9,TCAGTGAA,0.0307
10,ACCTGGCG,-0.328
11,ATCCACCC,-0.274
12,CCATGATC,-0.107
13,CAACTGCC,0.0104
14,GGCCTAAC,-0.013
15,GCTAGGGA,-0.218
16,CTTTTTCA,0.0943
17,AGATATAA,0.225
18,ATCGTTCA,0.0199
19,CCAAGACC,-0.1
20,CTAAAGAC,0.00499
21,CCCTAAGA,-0.234
22,AACCTATT,0.0936
23,AGGGAACG,-0.258
24,ACTGATTG,0.0585
25,ACGTGAAG,-0.0656

row,Sequence,PBM E-score
1,ATGAGCAC,-0.0794
2,CAGCGAGA,-0.0995
3,CCACGTAC,-0.0232
4,AGCTATAA,0.078
5,CGGGGAAG,-0.195
6,GATCCAGC,-0.125
7,AAAGAAAC,0.117
8,ATTCTGGC,-0.217
9,AAAAATCC,0.287
10,GCGAACAA,0.183
11,ACTGGCCC,0.0468
12,AATGTGGG,0.175
13,CCAGGGGG,-0.383
14,CCGGGGTA,-0.173
15,AACAGGGC,-0.144
16,AAGAGACA,0.103
17,ACCGCCCA,-0.269
18,GCGTCTCA,-0.129
19,CCACGGCC,-0.229
20,AACCAAAG,0.152
21,CTCAAATC,0.0295
22,AGCATTCC,-0.043
23,CAAACCTA,0.0917
24,CAACATAG,-0.0242
25,CTTTTTTA,0.124

row,Sequence,PBM E-score
1,TTACCGAA,0.0572
2,ACCTACTA,0.126
3,CTATCACA,0.15
4,GCTTACCA,0.087
5,ACTGTGAG,-0.00662
6,ATAGGATC,0.0418
7,ATTATGCG,0.151
8,TGATATCA,-0.011
9,GAGTAAAC,0.094
10,AGCTCGGG,-0.0821
11,GTTAGAAC,0.0406
12,ATTACGTA,0.122
13,GCGATGTA,0.104
14,AATCAGTA,0.153
15,AATGCTTC,0.105
16,AGTCTGTG,-0.206
17,GGACGTGA,-0.265
18,ACCTCTGC,-0.199
19,AGTACCAG,-0.0329
20,CTTTGGCC,0.0559
21,CGTTTGGA,0.0158
22,CACTACAC,-0.0863
23,TAACCGGA,0.0539
24,AAGCTGCG,-0.101
25,CGGGCATA,-0.157

row,Sequence,PBM E-score
1,TCAACCAA,0.114
2,AATGAGAC,-0.0515
3,GTGGTTCA,0.17
4,TGATGTAA,0.142
5,ACCTTGAT,0.144
6,TACGCGCA,0.0815
7,AATACTCA,0.229
8,ACGACAGT,-0.00999
9,GTCCCAGA,-0.263
10,AGTCTGGC,-0.258
11,CGAACATC,-0.0571
12,AGTGGAGA,0.0873
13,CTCACGAC,-0.187
14,CCCAAAAG,-0.0497
15,AAGGCTGG,-0.0837
16,ATAGGGGG,-0.184
17,ATAGTGGC,-0.112
18,AGGTGTGC,-0.05
19,ACATTATG,0.139
